Each structure is given as a SMILES string. Hit rate of the full screen: of about 48,000 compounds, about 120 (0.25%) were called active. About 4% were inconclusive and are not listed. The call rests on the fitted dose curve; in most records, active means well fitted activation curve with a large enough effect; inconclusive means small, poorly fitted or top-dose-only effect, or another doubt; inactive means no such curve, though single readings can be large or run the other way. The list shows a part of the results.

The nature of this assay: Primary qHTS for Identification of Small Molecule Activators of Huntingtin-Antisense Promoter Activity. Further: nearly all actives have a fitted effect of over 55% in size. Particulars: HEK293 HTT-AS promoter firefly luciferase reporter, 24 h; series mostly up to 57.5 µM; activity change, positive = activation: at the top concentration. The method in brief: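 Luminescence was read after Dual-Glo reagent and a 10 min room-temperature incubation. Values were normalized to vehicle (0% activity) and zero RLU (-100% activity). Reporter HEK293 cells had been exposed to compounds (up to 57.5 uM final) for 24 h.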
(In general: qHTS replaces the single test concentration by a dilution series.)
Consider `Cc1nc2cc(-c3cccc(F)c3)nn2c(C)c1CCC(=O)NCCc1ccccc1`, for which the “activity change, positive = activation” value is inactive: -61.8%.
As to `Cc1ccc(NC(=O)c2ccc(=O)n(CC(=O)Nc3ccccc3)n2)cc1`, the “activity change, positive = activation” value was inactive: -10.2%.
With `Cn1c(=O)c2sccc2n2c(CCCC(=O)Nc3ccc(Oc4ccccc4)cc3)nnc12` the figure was inactive: -34.1%.
In the case of `CCOC(=O)COc1ccc(-c2nnn(CC(=O)Nc3ccccc3)n2)cc1` it was inactive: 3.09%; in that of `Cc1ccc(NC(=O)CN2C=NS(=O)(=O)c3ccccc32)cc1`, inactive: 3.06%; in that of `COc1ccc(-c2noc(CC(=O)N(C)c3cccc(C)c3)n2)cc1`, inactive: -15.3%.
With `CCOC(=O)COc1ccc(CC)cc1C(=O)c1ccn2nc(-c3ccc(F)cc3)cc2n1` the figure was inactive: -11.4%.
Consider `CCOC(=O)c1cnc2ccc(Br)cc2c1NCCN1CCOCC1`, for which the “activity change, positive = activation” value was inactive: -22.5%.
With `O=C(Nc1ccc2c(c1)CCCN2C(=O)c1cccs1)c1ccc(F)c(F)c1` the figure was inactive: -23.8%; with `COc1ccc(C(=O)c2cn(Cc3ccccc3F)c3cc4c(cc3c2=O)OCCO4)cc1OC`, inactive: -8.09%; with `COc1ccc(Cl)cc1S(=O)(=O)Nc1ccc2[nH]c(=O)[nH]c2c1`, inactive: 10.8%.
With `Cc1ccc(N2CC(NC(=O)c3ccccc3C(F)(F)F)CC2=O)cc1C` (stereo not drawn), the “activity change, positive = activation” value was inactive: -4.9%.
In the case of `CCc1ccc(S(=O)(=O)c2cn(Cc3ccccc3)c3cc(N4CCCC4)c(F)cc3c2=O)cc1` it was inactive: -10%; in that of `Cc1ccc(Cl)cc1N1CCN(C(=O)CCS(=O)(=O)c2cc(Br)cc3c2N(C(=O)C2CC2)CC3)CC1`, inactive: -17.4%; in that of `COc1ccc(NC(=O)CSc2oc(-c3cccs3)nc2S(=O)(=O)c2ccccc2)c(OC)c1`, inactive: -18.5%.
`O=C(Nc1ccc(C(=O)OCc2cc(=O)n3nc(C4CC4)sc3n2)cc1)c1ccccc1`: the “activity change, positive = activation” value is inactive: 8.1%.
With `Cc1cccc(CNC(=O)c2cc3cc(S(=O)(=O)N4CCCCC4)ccc3n2C)c1`, the “activity change, positive = activation” value was inactive: -34.9%.
On to `Cc1ccc(CCNC(=O)Cn2c(-c3cccs3)cc3ccccc32)cc1`, for which the “activity change, positive = activation” value was inactive: -24.5%.
With `COc1ccc(C(=O)NCCn2cc(SCc3ccc(C(F)(F)F)cc3)c3ccccc32)cc1OC` the figure was inactive: -59.7%; with `O=C(Nc1ccc(Oc2ccc(Cl)cc2)c(Cl)c1)c1cc(I)cc(I)c1O`, inactive: -93.3%; with `COc1cccc(CNC(=O)C2CCCN(S(=O)(=O)N(C)c3ccc(F)cc3)C2)c1OC` (stereo not drawn), inactive: -90.5%.
On to `Cc1cccc(NC(=O)CSC2=Nc3ccccc3C3=NC(CC(=O)NCc4cccs4)C(=O)N23)c1` (stereo not drawn), for which the “activity change, positive = activation” value is inactive: -5.04%.
In the case of `COc1ccccc1/C=C/c1nc(C#N)c(NC2CCCCC2)o1` it was inactive: 9.76%; in that of `COc1ccc(CNC(=O)CCCn2nc(C)n3c(cc4sccc43)c2=O)cc1`, inactive: 2.77%.
`COCCn1c(C)cc(O)c(C(c2ccccc2OC)N2CCN(c3ccccc3)CC2)c1=O` (stereo not drawn): the “activity change, positive = activation” value was inactive: 3.14%.
For `Cc1cc(C)c2c(=O)cc(C(=O)Nc3sc4c(c3C(=O)NCc3cccnc3)CCCC4)oc2c1`, the “activity change, positive = activation” value is inactive: -1.79%.
Take `CCC(Sc1nc2nccnc2c(=O)n1Cc1ccc(OC)cc1)C(=O)NC1CCCCC1` (stereo not drawn): the “activity change, positive = activation” value was inactive: -12.8%.
On to `CCOc1ccccc1CNC(=O)c1ccc2c(c1)sc1nc(-c3cccc(OC)c3)cn12`, for which the “activity change, positive = activation” value is inactive: 27.9%.
With `CC(C)n1c(SCC(=O)Nc2ccc(F)cc2)nc2c(oc3ccccc32)c1=O` the figure was inactive: 3.68%; with `CC(C)C12CN3CC(C(C)C)(CN(C1)C3c1ccc(OCc3ccccc3)cc1)C2=O` (stereo not drawn), inactive: 15%.
For the molecule `COC(=O)c1cc(S(=O)(=O)NCC2CCN(Cc3ccc(C)cc3)CC2)c[nH]1`, the “activity change, positive = activation” value was inactive: -12.4%.
In the case of `CC(=O)c1cccc(NC(=O)c2ccc(-n3c(C)nnc3C)cc2)c1` it was inactive: -7.02% [at 11.5 µM, percent change from vehicle, -100% = no light]; in that of `CCOc1ccc(-n2c(SCC(=O)Nc3ccc(F)cc3)nc3c([nH]c4ccccc43)c2=O)cc1`, inactive: -23.1%; in that of `Cc1ccc2c(c1)N(C(=O)N1CCC(C(=O)NC3CCCCCC3)CC1)CC(C)O2` (stereo not drawn), inactive: 16.7%.
With `COc1cc(NC(=O)Cc2c(C(=O)O)c(C)cn2C)cc(OC)c1`, the “activity change, positive = activation” value was inactive: -17%.
For `COc1ccc(/C=C/C(=O)Nc2sc3c(c2C(N)=O)CCC(C)C3)cc1OC` (stereo not drawn), the “activity change, positive = activation” value was inactive: -7.59%.
With `CCOC(=O)c1c(NC(=O)c2cc(C)on2)sc(C)c1C`, the “activity change, positive = activation” value is inactive: -3.01%.
With `CCOc1ccc(NC(=O)CCS(=O)(=O)c2cccc3nonc23)cc1` the figure was inactive: 25.3%; with `CCc1cccc(NC(=O)CSc2ncccc2C(=O)Oc2ccccc2Cl)c1`, inactive: -26.3%.
`CNC(=O)c1c[nH]c2ccc(S(=O)(=O)Nc3cccc(Cl)c3C)cc2c1=O`: the “activity change, positive = activation” value is inactive: -49.6%.
As to `Cc1cc(C)cc(OCc2ccc(C(=O)Nc3ccccc3F)o2)c1`, the “activity change, positive = activation” value is inactive: 24%.
In the case of `COc1ccc(CNC(=O)CCC(=O)N2CC3CCCN3c3ccccc32)c(OC)c1` (stereo not drawn) it was inactive: -8.04%; in that of `Cc1ccc(C2=CC(c3c(F)cccc3Cl)n3ncnc3N2)cc1C` (stereo not drawn), inactive: -10.5%.
As for `Cc1cc(C)cc(NC(=O)C2CCCN2S(=O)(=O)c2cccc3nsnc23)c1` (stereo not drawn), the activity change, positive = activation is inactive: 0.25% [at 11.5 µM, percent change from vehicle, -100% = no light].
As for `CCn1c(-c2ccc(S(=O)(=O)N3CCOCC3)cc2)csc1=Nc1ccc(C)c(Cl)c1`, the “activity change, positive = activation” value was inactive: -9.15%.
For the molecule `Cc1ccc(C(=O)n2nc(C)c(S(=O)(=O)N3CCCCCC3)c2C)cc1`, the “activity change, positive = activation” value is inactive: -12.8%.
`CCOC(=O)c1ccc(CN(Cc2ccccc2C)S(=O)(=O)c2ccc(C(C)(C)C)cc2)cc1`: the “activity change, positive = activation” value is inactive: -16.1%.
Regarding `COc1cccc(C2C(C(=O)Nc3ccccc3)=C(C)Nc3nc(-c4ccccc4)nn32)c1OC` (stereo not drawn), the “activity change, positive = activation” value is inactive: -24.1%.
Regarding `Cc1cccc(-c2noc(-c3ccc(N4CCN(C)CC4)c([N+](=O)[O-])c3)n2)c1`, the “activity change, positive = activation” value was inactive: -72.8%.
On to `COc1ccc(C)cc1NC(=O)c1ccc2c(c1)CCN2S(=O)(=O)c1ccc(Cl)cc1`, for which the “activity change, positive = activation” value is inactive: -0.52%.
With `Cc1ccc(C)c(CN2CCC(CNC(=O)c3cc4ccc5cccnc5c4[nH]3)CC2)c1` the figure was inactive: -13.8%.
In the case of `COc1ccc(CNc2nc3c(c(=O)n(C)c(=O)n3C)n2Cc2ccccc2Cl)cc1` it was inactive: 0.936%; in that of `CC(C)(C)OC(=O)N1CCC(c2nnc(SCc3ccccc3)o2)CC1`, inactive: -24.4%; in that of `Cc1cc(NC(=O)COc2ccccc2)cc(-c2nc3ccccc3o2)c1O`, inactive: -7.85%.
`COc1ccc(-c2noc(-c3ccc(N4CCCCC4C)c([N+](=O)[O-])c3)n2)cc1OC` (stereo not drawn): the “activity change, positive = activation” value was inactive: -9.53%.
As to `COc1ccccc1CNC(=O)c1ccc(N2Cc3cccc(OC)c3Oc3ncccc32)s1`, the “activity change, positive = activation” value is inactive: -8.33%.
`CCCn1c(-c2cccc(Br)c2)nc2ccccc21`: the “activity change, positive = activation” value is inactive: -4.92%.
For `Cn1ncc(C(=O)N2CCN(c3ccc(F)cc3)CC2)c1C1CCN(C(=O)OC(C)(C)C)CC1`, the “activity change, positive = activation” value was inactive: -12.3%.
